Measurements taken from publication PMC4336329 (PLoS ONE, 2015).
Hit rate of the full screen: of about 310,000 compounds, about 14,000 (4.5%) showed an effect of 50% or more. Effects have a minus sign here. Some of the results follow.

The compounds below were run against human ether-à-go-go-related gene (hERG) potassium channel (human, UniProt Q12809) (assay: primary screen, population patch clamp on CHO cells stably expressing hERG).
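Further: peak tail current of the secondary pulse compared with the same well before compound.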

Chain of human ether-à-go-go-related gene (hERG) potassium channel (Q12809 whole entry, looked up): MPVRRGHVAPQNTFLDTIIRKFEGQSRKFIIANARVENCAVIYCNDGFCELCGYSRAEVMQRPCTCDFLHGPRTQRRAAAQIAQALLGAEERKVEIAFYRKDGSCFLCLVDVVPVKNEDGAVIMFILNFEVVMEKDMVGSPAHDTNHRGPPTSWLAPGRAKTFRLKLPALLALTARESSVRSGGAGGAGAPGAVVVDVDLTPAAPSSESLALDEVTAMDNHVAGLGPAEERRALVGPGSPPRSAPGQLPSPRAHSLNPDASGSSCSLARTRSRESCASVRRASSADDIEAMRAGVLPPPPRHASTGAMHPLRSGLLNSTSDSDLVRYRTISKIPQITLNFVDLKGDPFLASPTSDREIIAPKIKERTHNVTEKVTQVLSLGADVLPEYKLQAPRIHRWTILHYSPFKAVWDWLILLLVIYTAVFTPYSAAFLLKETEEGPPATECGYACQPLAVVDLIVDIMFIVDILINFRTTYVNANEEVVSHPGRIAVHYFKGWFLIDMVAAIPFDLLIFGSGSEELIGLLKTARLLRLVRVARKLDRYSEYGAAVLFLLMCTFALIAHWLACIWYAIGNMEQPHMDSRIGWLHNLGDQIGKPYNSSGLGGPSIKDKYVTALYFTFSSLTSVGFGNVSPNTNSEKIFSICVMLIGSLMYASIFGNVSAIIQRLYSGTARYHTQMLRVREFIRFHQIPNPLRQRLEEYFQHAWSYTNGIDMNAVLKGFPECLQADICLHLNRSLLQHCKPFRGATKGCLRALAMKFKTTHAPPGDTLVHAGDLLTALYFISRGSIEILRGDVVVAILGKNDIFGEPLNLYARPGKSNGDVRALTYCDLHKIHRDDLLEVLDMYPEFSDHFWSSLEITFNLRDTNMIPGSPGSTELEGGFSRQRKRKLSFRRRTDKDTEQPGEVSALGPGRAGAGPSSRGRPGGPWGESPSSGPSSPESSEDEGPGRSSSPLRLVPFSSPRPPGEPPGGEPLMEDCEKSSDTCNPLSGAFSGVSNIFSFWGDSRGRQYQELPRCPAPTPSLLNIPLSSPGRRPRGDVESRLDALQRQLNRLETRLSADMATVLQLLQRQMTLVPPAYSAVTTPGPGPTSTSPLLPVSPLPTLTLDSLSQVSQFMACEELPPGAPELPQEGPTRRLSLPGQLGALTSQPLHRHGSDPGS

Compound | hERG current change (%, negative = inhibition) at 10uM
O=C(C1=C(O)C(=O)N(CC2CCCO2)C1c1cccnc1)c1ccco1 (stereo not shown) | 7.52%
Cc1cc(C2=NNC(=NCCc3ccccc3)SC2)c(C)n1-c1c(C)n(C)n(-c2ccccc2)c1=O | -1.1%
Cc1ccc(N(C(C)C(=O)Nc2ccc3c(c2)OCO3)S(C)(=O)=O)cc1 (stereo not shown) | -2.38%
C=CCn1c(O)c(N=Nc2ccccc2C)c2ccccc21 | 4.06%
COc1ccc(-c2cc3c(=O)n(CC(=O)Nc4ccc(C(C)=O)cc4)ncn3n2)cc1 | 23.2%
COc1ccc(NC(=O)c2ccc(NC(=O)CCS(=O)(=O)c3cccs3)cc2)cc1 | 19.6%
CCCCCCN1CC(=O)N2[C@@H](Cc3c([nH]c4ccccc34)C2(C)C)C1=O | 13.9%
CCc1ccc(NC(=O)c2cc(-c3ccco3)on2)cc1 | 3.72%
CC1=NN(c2ccccc2C(=O)O)C(=O)C1N=Nc1ccccc1 (stereo not shown) | -3.05%
CCCC(=O)OCCn1c(Br)nc2c1c(=O)[nH]c(=O)n2C | 16.9%
Cc1nc2c(C)cccc2c(SC(=N)N)c1CC=C(Cl)Cl.Cl | 6.48%
O=C(CSCC(=O)Nc1cccc2ccccc12)Nc1cccc2ccccc12 | 20%
O=C(NNC(=S)NC(=O)c1sc2ccccc2c1Cl)c1ccc(Cl)cc1 | 18.3%
O=C(NCc1ccncc1)c1ccc(Br)o1 | 2.19%
O=C(Nc1nnc(C23CC4CC(CC(C4)C2)C3)s1)c1ccc(N2C(=O)CCC2=O)cc1 | 16.8%
CCOc1cc(/C=N/Nc2nnc(C)n2N)ccc1OC(C)=O.Cl | 7.69%
CC1CN=C(NC(C)c2ccccc2)S1 (stereo not shown) | 2.35%
O=[N+]([O-])c1ccc(N2CCCC2)cc1NC(c1ccccc1)c1ccccc1 | 8.49%
CCc1[nH]nc2c1C1(CCN(C(=O)OCc3ccccc3)CC1)C(C#N)=C(N)O2 | 13.3%
CC1CCN(c2c(NCc3ccc(C(=O)NCC4COc5ccccc5O4)cc3)c(=O)c2=O)CC1 (stereo not shown) | 3.59%
c1ccc2c(c1)nc(-c1ccncc1)n2CCNc1nc(CN2CCCCC2)cs1 | -4.11%
CCCCN(C)CCN1C(=O)C2C(C(=O)Nc3ccc(Cl)cc3)C3C=CC2(O3)C1C(=O)NC1CCCCC1 (stereo not shown) | -70.2%
COc1cccc(C(=O)COC(=O)C(C)N2C(=O)c3ccccc3C2=O)c1 (stereo not shown) | -7.25%
O=C(Nc1nc2nccc(-c3ccccc3)n2n1)c1ccccc1 | -7.16%
CCOc1cccc(CN2CCC(n3nccc3NC(=O)c3ccc4c(c3)OCO4)CC2)c1 | -43.2%
CC(C)OCCCN1CN(S(=O)(=O)c2ccccc2)c2nc3ccccc3nc21 | -4.27%
COc1ccc(-c2ccc3nnc(SCC(=O)N4CCCC4)n3n2)cc1 | -23%
COc1ccc(NC(=O)CC2C(=O)OCC3CCCCN32)cc1Cl (stereo not shown) | -34%

Compound | hERG current change (%, negative = inhibition) at 10uM
CC(NC(=O)CCc1ccccc1)c1ccc2c(c1)OCO2 (stereo not shown) | 12.8%
COC(=O)c1ccccc1C(=O)N1CCCC(C(=O)c2ccc(OC)c(OC)c2)C1 (stereo not shown) | 4.47%
Cc1c(NC(=O)/C(C#N)=C\c2cccs2)c(=O)n(-c2ccccc2)n1C | 0.478%
CCCCN1C(=O)/C(=C/c2ccc(N(C)C)cc2)C(=O)N(Cc2ccco2)C1=O | 7.86%
O=C(NNc1nc2ccccc2s1)Nc1ccccc1 | -2.48%
Cc1ccc(N2C(=O)c3cccc4c(N5CCN(C)CC5)ccc(c34)C2=O)c2cccnc12 | 7.73%
COc1ccccc1/C=N/n1nnnc1N | 12%
Cc1cc(-c2cccc([N+](=O)[O-])c2)nc2ccccc12 | -1.46%
CC(=O)c1cccc(NS(=O)(=O)N2CCOCC2)c1 | 4.56%
CN(C)C(CNC(=O)c1ccc(NS(=O)(=O)c2ccc3[nH]c(=O)[nH]c3c2)cc1)c1ccccc1 (stereo not shown) | 5.51%
CCCCOC(=O)C1Cc2ccccc2C(=O)O1 (stereo not shown) | -13.4%
O=C(NCc1ccco1)C(c1cccnc1)N(C(=O)Cn1nnc2ccccc21)c1ccc(F)cc1 (stereo not shown) | 10.7%
CCOC(=O)N1CCC(NC(=O)CSCc2nc(-c3ccc(OCC)cc3)oc2C)CC1 | -46.3%
COc1ccc(OCc2cc(C(=O)N3C[C@@H](C)O[C@@H](C)C3)no2)c(Cl)c1 | -15%
Cc1ccc(C2N(c3ccccc3)C(=O)N3CCCN23)cc1 (stereo not shown) | 2.63%
Cc1ccc(N2C(=O)C(Cl)=C(NCCO)C2=O)c(C)c1 | -2.41%
O=C(O)c1ccc(/C=N/N2CCN(Cc3ccc(Cl)cc3)CC2)cc1 | 19.5%
Cc1ccc(NS(=O)(=O)N2CCOCC2)c(C)c1 | 10.2%
CC(C)Oc1ccc(CNC(=O)Cn2c(=O)oc3ccccc32)cc1 | -7.93%
Cc1oc2cc(O)ccc2c(=O)c1Oc1ccc2ccccc2c1 | -49.6%
O=C(CN1CCN(c2ccccc2O)CC1)Nc1ccccc1C(=O)NCCc1ccccc1 | 46.2%
Cc1ccc(NC(=O)CS(=O)CC(=O)N2CCN(c3ccccc3)CC2)cc1 (stereo not shown) | 11.8%
COC(=O)CCCC1=CC2=CC(=O)C(C)(OC(=O)c3cnc4ccccc4n3)C(=O)C2=CO1 (stereo not shown) | 7.07%
Cc1ccc(-n2c(C)c(C)c3c(NCCO)ncnc32)cc1 | 6.27%
N#CCCN1CCN(S(=O)(=O)c2ccc(S(=O)(=O)NCc3ccccc3)cc2)CC1 | -2.09%
O=C(Nc1ccc(CN2CCCCC2)cc1)c1cc(Br)ccc1Cl | -20.3%
COc1cc(/C=C2/C(=O)CNC2=O)ccc1O | 12.2%
